Data on 54 sequences can be found in article PMC7819943, “Rice protein-binding microarrays: a tool to detect cis-acting elements near promoter regions in rice”.

This is one part of the list.

In the assay the target is T1, OsWOX13 (Oryza sativa, UniProt Q5QMM3 1-267).
T1 sequence: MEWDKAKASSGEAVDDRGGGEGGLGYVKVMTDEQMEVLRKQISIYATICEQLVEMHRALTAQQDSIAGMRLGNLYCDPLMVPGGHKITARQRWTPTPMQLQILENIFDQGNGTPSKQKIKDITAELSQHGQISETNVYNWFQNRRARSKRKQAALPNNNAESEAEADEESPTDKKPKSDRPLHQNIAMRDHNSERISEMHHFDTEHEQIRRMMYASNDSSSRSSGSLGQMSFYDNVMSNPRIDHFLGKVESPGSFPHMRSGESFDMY
Briefly: protein-binding microarray (RPBM); PBS, 2% BSA, 51.3 ng/ul salmon testes DNA, 50 uM zinc acetate, 200 nM TF, 25 C, 1 h; high values mean tight binding. Particulars: protein: recombinant; tags: N-terminal polyhistidine and DsRed monomer fusion (pET32a); label: CyDye5-dUTP incorporated in the synthesized complementary strand; 3' TTTTT single-stranded linker to array surface; dsDNA, one strand shown. The gist of the method:
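For the binding signal, per-feature fluorescence intensity was read in arbitrary units on an Axon 4000B scanner. Before scanning, a 2% BSA-blocked custom Agilent array made double-stranded with Cy5-dUTP was washed after 1 h at 25 °C with 200 nM protein and 50 µM zinc acetate. The proteins were Ni–NTA-purified transcription factors with N-terminal polyhistidine and DsRed fusions, expressed in E. coli BL21-CodonPlus.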
As to “GATCAAACATTGCACCTGATTGGGGTCTCATGCTTTATGTCGGAGTCACCTAGTGCAG”, the binding signal is 6920 fluorescence intensity (a.u.).
With “CCGCTTGATTTATGATTTATTGATGGCATCGCGTATACACCGGAGTCACCTAGTGCAG” the figure was 51100 fluorescence intensity (a.u.); with “CATCCAATCACAACCCTCCACCACTCACTTCTACATACTTCGGAGTCACCTAGTGCAG”, 14900 fluorescence intensity (a.u.).
Turning to “AGCATGCTCCTTGATTGATGGATTAGGTCAGGTCTTTTATCGGAGTCACCTAGTGCAG”, the binding signal was 26000 fluorescence intensity (a.u.).
With “TGCCAGATTGAAGCGAGGAGAAGAAAGAGTTCGACTCAATCGGAGTCACCTAGTGCAG” the figure was 6580 fluorescence intensity (a.u.).
“ATAAACTGCTAGACGAATCTATTAAGCCTAATTAATCCGTCGGAGTCACCTAGTGCAG”: the binding signal was 12800 fluorescence intensity (a.u.).
With “TTTCCTAATTACTGCTACAGCAGCTCGGCAAAGTGATCTTCGGAGTCACCTAGTGCAG” the figure was 5710 fluorescence intensity (a.u.); with “CTATAATTTCGTAATTCATGATCGTTCGTTCTGTAACCTCCGGAGTCACCTAGTGCAG”, 24600 fluorescence intensity (a.u.).
With “ATAATAATTGACTATTCATAGTGCATATTTTCTGACTTTCCGGAGTCACCTAGTGCAG” the figure was 15800 fluorescence intensity (a.u.).
As for “CCAATTAATTATTTCTTAAGCTCTCAGACAGGCCATACGACGGAGTCACCTAGTGCAG”, the binding signal was 15600 fluorescence intensity (a.u.).
In the case of “GTTTTGTCAAATTATTAGTACTAGTTTCAGTTTGATAAGGCGGAGTCACCTAGTGCAG” it was 3270 fluorescence intensity (a.u.).
In the case of “GAGAGATGACATGGACCTTGACATGTGGCCCACGTGGCATCGGAGTCACCTAGTGCAG” it was 3180 fluorescence intensity (a.u.).
In the case of “AATTAAATTAATAATATATGTTTAGATCGTACATGTGGCACGGAGTCACCTAGTGCAG” it was 25000 fluorescence intensity (a.u.); in that of “AATCCATTACTATCCTTCTGCTGTTATCTTTCAATAAACCCGGAGTCACCTAGTGCAG”, 4080 fluorescence intensity (a.u.); in that of “CAACAGATAATCAAAGAAAATAAATATGTTAACAAATACGCGGAGTCACCTAGTGCAG”, 3430 fluorescence intensity (a.u.).
Take “GACTAACCGAATTGACCGAACAAAATTCGGTCTTTCACTACGGAGTCACCTAGTGCAG”: the binding signal is 4170 fluorescence intensity (a.u.).
In the case of “TTCATCATCTTCTCCTTAATTTACGCTTGGCTGGGAAGTGCGGAGTCACCTAGTGCAG” it was 4740 fluorescence intensity (a.u.).
With “AGAACCTAATCACGACCAATCCGTCGCCAACACAGCCACACGGAGTCACCTAGTGCAG” the figure was 8710 fluorescence intensity (a.u.).
With “CTGGAATAAATTGCTTTGTAAAATGATTCCAGTTTTAAATCGGAGTCACCTAGTGCAG” the figure was 12000 fluorescence intensity (a.u.).
On to “CGCCATTAATTAGCCACACCTGCAAATCTCACTCTAGCTCCGGAGTCACCTAGTGCAG”, for which the binding signal was 19200 fluorescence intensity (a.u.).
With “CATTGATTTGCATGAAGGCCCAAAAGGAAGAGGTGTTGTCCGGAGTCACCTAGTGCAG”, the binding signal is 32400 fluorescence intensity (a.u.).
In the case of “GGCCAAAATTGACGCGGAGACGCCGGATCCAACCACGCACCGGAGTCACCTAGTGCAG” it was 8350 fluorescence intensity (a.u.).
With “GTTTTGAAAATTTACAAATCTAATCGCCTGCCGCCCTTTGCGGAGTCACCTAGTGCAG” the figure was 6710 fluorescence intensity (a.u.); with “CGGAGAGATAGATTGGTTGGTTGCGAGGGCGAGGCGGCGGCGGAGTCACCTAGTGCAG”, 30700 fluorescence intensity (a.u.).
With “CAAGTTGATTGCGATGAGTTGTACAAAATTCCACACAAATCGGAGTCACCTAGTGCAG” the figure was 23800 fluorescence intensity (a.u.).
With “CTTATTTAATCAATTTATACTTCTATATACTACGACCTATCGGAGTCACCTAGTGCAG”, the binding signal was 16300 fluorescence intensity (a.u.).
In the case of “ATTTACAAATTCATCAATCATGTGAGTCTTTCGAAACAATCGGAGTCACCTAGTGCAG” it was 11200 fluorescence intensity (a.u.); in that of “GAGGATTTCAATCCTATAGGAAAATTTTCTATGATGCCCTCGGAGTCACCTAGTGCAG”, 3400 fluorescence intensity (a.u.).
As to “AAAATCATGTAACAATTAGGCTTAAAAGATTCGTCTCGCACGGAGTCACCTAGTGCAG”, the binding signal was 7050 fluorescence intensity (a.u.).
With “TCTTTCTTGATTTCCCAATCTACTAAGCTCCTACTAGCTCCGGAGTCACCTAGTGCAG” the figure was 11000 fluorescence intensity (a.u.); with “TCATGTCATAAATTAAATTATTTGAAATTATTTGGTACAGCGGAGTCACCTAGTGCAG”, 13900 fluorescence intensity (a.u.); with “TTGTAAACTGATACAGTCCAGTATCCCCGTGGGTGGTGGACGGAGTCACCTAGTGCAG”, 3170 fluorescence intensity (a.u.).
In the case of “GTAGATCAATTTCCTTAACCGAATATAGCAAGAATCCGACCGGAGTCACCTAGTGCAG” it was 3270 fluorescence intensity (a.u.); in that of “AATTCTAATTTATATGGTAGATTTTAAAAGTTAAATTGGACGGAGTCACCTAGTGCAG”, 20700 fluorescence intensity (a.u.); in that of “GGTAACCTTAATCAATTTGCTGTCAAAGGAAGAAAAGTAACGGAGTCACCTAGTGCAG”, 7500 fluorescence intensity (a.u.).
In the case of “CTTAAATGATGAAGAAGATTAATTTTATAGATAGGTGCTTCGGAGTCACCTAGTGCAG” it was 23100 fluorescence intensity (a.u.); in that of “TAATACTTAATTAATCACGTGTTAATGAACCGTTCCGTTTCGGAGTCACCTAGTGCAG”, 27700 fluorescence intensity (a.u.); in that of “GTAGTTCTTGATGTATTTCAATTAGAACCTTAATTTTCCACGGAGTCACCTAGTGCAG”, 3390 fluorescence intensity (a.u.).
On to “CAAACTATTTATGCGATGAGTGATTTGATCATACCGTTGACGGAGTCACCTAGTGCAG”, for which the binding signal is 3690 fluorescence intensity (a.u.).
As for “TCTTAAATTTTACAAAATTATAATGGCATAGTTCCAATTTCGGAGTCACCTAGTGCAG”, the binding signal was 13300 fluorescence intensity (a.u.).
As for “TGTATGTGAATTGATTGTACCCATTGGGTTTTGTTTTCTACGGAGTCACCTAGTGCAG”, the binding signal is 14200 fluorescence intensity (a.u.).
In the case of “TCAAATTTAACGGACGAGAATCATCCACCGCTTCAGATCCCGGAGTCACCTAGTGCAG” it was 5020 fluorescence intensity (a.u.); in that of “ATTAACTGACTTTTGGTAGAGGCGGTCCAAATTAATGGCTCGGAGTCACCTAGTGCAG”, 14100 fluorescence intensity (a.u.).
“CTTCTACAGTGATTGGTCAATCAGCACAGTAACTAGTAGTCGGAGTCACCTAGTGCAG”: the binding signal was 34400 fluorescence intensity (a.u.).
With “CGGATTGATCGACGGCGAAGAATGAAGCTCACCAGAATTTCGGAGTCACCTAGTGCAG” the figure was 5290 fluorescence intensity (a.u.).
As to “CGTAATTAAGGCTCTTATCCCCTCAGCATTCATCTTTGACCGGAGTCACCTAGTGCAG”, the binding signal is 12900 fluorescence intensity (a.u.).
For “CTCAATCAATATTCCACTAATTAAACCCTCCATTGATGATCGGAGTCACCTAGTGCAG”, the binding signal is 17200 fluorescence intensity (a.u.).
For “GTTTGGAGGTGTTTGATTGGAGAATGCCAGAATGTAAATTCGGAGTCACCTAGTGCAG”, the binding signal is 8100 fluorescence intensity (a.u.).
With “AACAAGTTTTATCAATCTATCTGGAAGAAAGGAGTATATACGGAGTCACCTAGTGCAG” the figure was 4420 fluorescence intensity (a.u.); with “ATATATATAAATTTTAAATCTGTTGTAACGTACTCCAAGTCGGAGTCACCTAGTGCAG”, 3280 fluorescence intensity (a.u.).
In the case of “CTAGTAATTTACTTATTAGTACCTGTGTAGTATTATCTATCGGAGTCACCTAGTGCAG” it was 6560 fluorescence intensity (a.u.); in that of “ATGGACGATGACTGATGATGACTCTCAAGAGAATGTGTTTCGGAGTCACCTAGTGCAG”, 8460 fluorescence intensity (a.u.).
As for “ACTTAATTCTCGTAACATTATTTATATAAACATAATAAATCGGAGTCACCTAGTGCAG”, the binding signal is 4120 fluorescence intensity (a.u.).
In the case of “TTCTGATGGAAACTGGCATTTGTGTTATAACAGGAGCTGGCGGAGTCACCTAGTGCAG”, the binding signal is 25700 fluorescence intensity (a.u.).
